Results on nine variants are retold here after the supplement of paper PMC12217912.

B1: TEV protease; numbered along this chain (parent)
chain: MGESLFKGPRDYNPISSSICHLTNESDGHTTSLYGIGFGPFIITNKHLFRRNNGTLVVQSLHGVFKVKDTTTLQQHLVDGRDMIIIRMPKDFPPFPQKLKFREPQREERICLVTTNFQTKSMSSMVSDTSCTFPSGDGIFWKHWIQTKDGQCGSPLVSTRDGFIVGIHSASNFTNTNNYFTSVPKNFMELLTNQEAQQWVSGWRLNADSVLWGGHKVFMVKPEEPFQPVKEATQL

In the test the parent is B1. The test is described as follows: raw area under fraction-flipped curve 0-4 h after induction (AUC4h, not background-subtracted), DNA-recorder readout of cleavage of the substrate (dimensionless); higher = more cleavage of the substrate by the protease variant. To be noted: temperature: 34 °C; time window: 0-4 h after rhamnose induction. The protocol:
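In vivo DNA recorder in E. coli TOP10(DE3) ΔrhaA at 34 °C. Each TEVp single-site mutant (parent TEVp 0) is paired with a single-site variant of the 7-mer TEVs (canonical ENLYFQ|S). The substrate sits between flexible linkers in a Bxb1-sfGFP-TEVs-SsrA fusion, so cleavage stabilises Bxb1 and speeds flipping of a recombination array, read by NGS. The value is the raw area under the fraction-flipped curve over 0-4 h after rhamnose induction (AUC4h), with ≥20 reads per time point. It is not background-subtracted; inactive controls average about 0.047.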

Some of the results follow. Sequences were assembled here from the parent chain. Values near 0.05 are background.
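Note: Bxb1 expression induced with 0.2% (w/v) L-rhamnose at OD600 near 0.5, cultures sampled hourly, flipped fraction per protease–substrate barcode pair counted by paired-end Illumina sequencing.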

Consider MGESLFKGPRDYNPISSSICHLTNESDGHTTSLYGIGFGPFIITNKHLFRRNNGTLVVQSLHGVFKVKDTTTLQQHLVDGRDMIIIRMPKDFPPFPQKLKFREPQREERICLVTTNFQTKSMSSMVSDTSGTFPSGDGIFWKHWIQTKDGQCGSPLVSTRDGFIVGIHSASNFTNTNNYFTSVPKNFMELLTNQEAQQWVSGWRLNADSVLWGGHKVFMVKPEEPFQPVKEATQL [C131G], for which the “area with substrate ENAYFQS” value stood at 0.0751, the “area with substrate ENEYFQS” value worked out at 0.0496, the “area with substrate ENGYFQS” value was found to be 0.0563 and the “area with substrate ENHYFQS” value worked out at 0.0608. Also, the “area with substrate ENKYFQS” value was 0.0296, the “area with substrate ENNYFQS” value is 0.051 and the “area with substrate ENYYFQS” value amounted to 0.0674.

For MGESLFKGPRDYNPISSSICHLTNESDGHTTSLYGIGFGPFIITNKHLFRRNNGTLVVQSLHGVFKVKDTTTLQQHLVDGRDMIIIRMPKDFPPFPQKLKFREPQREERICLVTTNFQTKSMSSMKSDTSCTFPSGDGIFWKHWIQTKDGQCGSPLVSTRDGFIVGIHSASNFTNTNNYFTSVPKNFMELLTNQEAQQWVSGWRLNADSVLWGGHKVFMVKPEEPFQPVKEATQL [V126K], the “area with substrate ENAYFQS” value came out at 0.0561, the “area with substrate ENCYFQS” value turned out to be 0.0622, the “area with substrate ENDYFQS” value is 0.061 and the “area with substrate ENEYFQS” value was 0.0385. Also, the “area with substrate ENHYFQS” value is 0.0569, the “area with substrate ENIYFQS” value was 0.102, the “area with substrate ENNYFQS” value came to 0.0711 and the “area with substrate ENPYFQS” value worked out at 0.0519. Moreover, the “area with substrate ENQYFQS” value worked out at 0.0543, the “area with substrate ENRYFQS” value is 0.0567, the “area with substrate ENSYFQS” value amounted to 0.071 and the “area with substrate ENTYFQS” value came out at 0.0579. The “area with substrate ENVYFQS” value worked out at 0.0774.

Consider MGESLFKGPRDYNPISSSICHLTNESDGHTTSLYGIGFGPFIITNKHLFRRNNGTLVVQSLHGVFKVKDTTTLQQHLVDGRDMIIIRMPKDFPPFPQKLKFREPQREERWCLVTTNFQTKSMSSMVSDTSCTFPSGDGIFWKHWIQTKDGQCGSPLVSTRDGFIVGIHSASNFTNTNNYFTSVPKNFMELLTNQEAQQWVSGWRLNADSVLWGGHKVFMVKPEEPFQPVKEATQL [I110W], for which the “area with substrate ENAYFQS” value was found to be 0.0502, the “area with substrate ENCYFQS” value amounted to 0.0537, the “area with substrate ENEYFQS” value turned out to be 0.0544 and the “area with substrate ENFYFQS” value stood at 0.0679. Also, the “area with substrate ENHYFQS” value is 0.0614, the “area with substrate ENNYFQS” value worked out at 0.0526, the “area with substrate ENQYFQS” value is 0.065 and the “area with substrate ENVYFQS” value was 0.0675. Besides, the “area with substrate ENWYFQS” value worked out at 0.0408 and the “area with substrate ENYYFQS” value turned out to be 0.0598.

Regarding MGESLFKGPRDYNPISSSICHLTNESDGHTTSLYGIGFGPFIITNKHLFRRNNGTLVVQSLHGVFKVKDTTTLQQHLVDGRDMIIIRMPKDFPPFPQKLKFREPQREERICLVTTNFETKSMSSMVSDTSCTFPSGDGIFWKHWIQTKDGQCGSPLVSTRDGFIVGIHSASNFTNTNNYFTSVPKNFMELLTNQEAQQWVSGWRLNADSVLWGGHKVFMVKPEEPFQPVKEATQL [Q118E], the “area with substrate ENAYFQS” value came out at 0.066, the “area with substrate ENCYFQS” value is 0.0594, the “area with substrate ENFYFQS” value stood at 0.061 and the “area with substrate ENGYFQS” value came out at 0.0615. The “area with substrate ENIYFQS” value stood at 0.0975, the “area with substrate ENNYFQS” value turned out to be 0.0556, the “area with substrate ENQYFQS” value stood at 0.0677 and the “area with substrate ENRYFQS” value was determined as 0.0525. Besides, the “area with substrate ENSYFQS” value is 0.0442, the “area with substrate ENTYFQS” value was found to be 0.0808, the “area with substrate ENVYFQS” value worked out at 0.0635 and the “area with substrate ENYYFQS” value amounted to 0.0516.

MGESLFKGPRDYNPISSSICHLTNESDGHTTSLYGIGFGPFIITNKHLFRRNNGTLVVQSLHGVFKVKDTTTLQQHLVDGRDMIIIRMPKDFPPFPQKLKFREPQREERICLVTTNFQTKSMSSMVNDTSCTFPSGDGIFWKHWIQTKDGQCGSPLVSTRDGFIVGIHSASNFTNTNNYFTSVPKNFMELLTNQEAQQWVSGWRLNADSVLWGGHKVFMVKPEEPFQPVKEATQL [S127N]: the “area with substrate ENAYFQS” value was determined as 0.0645, the “area with substrate ENCYFQS” value came out at 0.0701, the “area with substrate ENDYFQS” value amounted to 0.0637 and the “area with substrate ENEYFQS” value was found to be 0.0588. The “area with substrate ENFYFQS” value was 0.0848, the “area with substrate ENGYFQS” value was 0.0633, the “area with substrate ENHYFQS” value was determined as 0.0506 and the “area with substrate ENKYFQS” value was determined as 0.0653. The “area with substrate ENNYFQS” value turned out to be 0.0618, the “area with substrate ENPYFQS” value amounted to 0.052, the “area with substrate ENQYFQS” value is 0.0349 and the “area with substrate ENRYFQS” value is 0.0603. Further, the “area with substrate ENVYFQS” value was determined as 0.0812 and the “area with substrate ENYYFQS” value amounted to 0.0609.

For the variant MGESLFKGPRDYNPISSSICHLTNESDGHTTSLYGIGFGPFIITNKHLFRRNNGTLVVQSLHGVFKVKDTTTLQQHLVDGRDMIIIRMPKDFPPFPQKLKFREPQREERICLVTINFQTKSMSSMVSDTSCTFPSGDGIFWKHWIQTKDGQCGSPLVSTRDGFIVGIHSASNFTNTNNYFTSVPKNFMELLTNQEAQQWVSGWRLNADSVLWGGHKVFMVKPEEPFQPVKEATQL [T115I], the “area with substrate ENAYFQS” value turned out to be 0.0618, the “area with substrate ENDYFQS” value is 0.0659, the “area with substrate ENFYFQS” value came out at 0.0686 and the “area with substrate ENGYFQS” value was found to be 0.0489. The “area with substrate ENKYFQS” value came out at 0.0668, the “area with substrate ENMYFQS” value turned out to be 0.0673, the “area with substrate ENNYFQS” value turned out to be 0.0659 and the “area with substrate ENPYFQS” value was determined as 0.0619. Also, the “area with substrate ENRYFQS” value was determined as 0.0595, the “area with substrate ENSYFQS” value amounted to 0.0605, the “area with substrate ENTYFQS” value stood at 0.0549 and the “area with substrate ENVYFQS” value stood at 0.0706. The “area with substrate ENYYFQS” value is 0.0561.

In the case of MGESLFKGPRDYNPISSSICHLTNESDGHTTSLYGIGFGPFIITNKHLFRRNNGTLVVQSLHGVFKVKDTTTLQQHLVDGRDMIIIRMPKDFPPFPQKLKFREPQREERICLVTHNFQTKSMSSMVSDTSCTFPSGDGIFWKHWIQTKDGQCGSPLVSTRDGFIVGIHSASNFTNTNNYFTSVPKNFMELLTNQEAQQWVSGWRLNADSVLWGGHKVFMVKPEEPFQPVKEATQL [T115H], the “area with substrate ENAYFQS” value was determined as 0.0498, the “area with substrate ENCYFQS” value came out at 0.104, the “area with substrate ENDYFQS” value is 0.0624 and the “area with substrate ENFYFQS” value stood at 0.0625. Moreover, the “area with substrate ENHYFQS” value amounted to 0.0586, the “area with substrate ENKYFQS” value was determined as 0.0714, the “area with substrate ENMYFQS” value turned out to be 0.0773 and the “area with substrate ENPYFQS” value was 0.063. Also, the “area with substrate ENQYFQS” value is 0.0515, the “area with substrate ENRYFQS” value is 0.0725, the “area with substrate ENSYFQS” value was 0.0546 and the “area with substrate ENTYFQS” value was 0.0789. The “area with substrate ENWYFQS” value was 0.0125.

As for MGESLFKGPRDYNPISSSICHLTNESDGHTTSLYGIGFGPFIITNKHLFRRNNGTLVVQSLHGVFKVKDTTTLQQHLVDGRDMIIIRMPKDFPPFPQKLKFREPQREERICLVTTNFQTKNMSSMVSDTSCTFPSGDGIFWKHWIQTKDGQCGSPLVSTRDGFIVGIHSASNFTNTNNYFTSVPKNFMELLTNQEAQQWVSGWRLNADSVLWGGHKVFMVKPEEPFQPVKEATQL [S121N], the “area with substrate ENAYFQS” value turned out to be 0.0587, the “area with substrate ENDYFQS” value turned out to be 0.0578, the “area with substrate ENHYFQS” value stood at 0.025 and the “area with substrate ENKYFQS” value was found to be 0.0483. For the same variant, the “area with substrate ENPYFQS” value turned out to be 0.0721, the “area with substrate ENQYFQS” value was found to be 0.0671, the “area with substrate ENSYFQS” value turned out to be 0.0595 and the “area with substrate ENTYFQS” value came to 0.0582. In addition, the “area with substrate ENVYFQS” value was found to be 0.0787, the “area with substrate ENWYFQS” value is 0.0641 and the “area with substrate ENYYFQS” value stood at 0.064.

Take MGESLFKGPRDYNPISSSICHLTNESDGHTTSLYGIGFGPFIITNKHLFRRNNGTLVVQSLHGVFKVKDTTTLQQHLVDGRDMIIIRMPKDFPPFPQKLKFREPQREERICLVTTNFQTKSMLSMVSDTSCTFPSGDGIFWKHWIQTKDGQCGSPLVSTRDGFIVGIHSASNFTNTNNYFTSVPKNFMELLTNQEAQQWVSGWRLNADSVLWGGHKVFMVKPEEPFQPVKEATQL [S123L]: the “area with substrate ENAYFQS” value worked out at 0.0155, the “area with substrate ENDYFQS” value amounted to 0.0554, the “area with substrate ENEYFQS” value is 0.0645 and the “area with substrate ENFYFQS” value was 0.0632. Besides, the “area with substrate ENHYFQS” value stood at 0.0708, the “area with substrate ENIYFQS” value came to 0.117, the “area with substrate ENMYFQS” value was 0.0795 and the “area with substrate ENNYFQS” value was 0.0616. Also, the “area with substrate ENPYFQS” value worked out at 0.0756, the “area with substrate ENQYFQS” value came out at 0.0423, the “area with substrate ENRYFQS” value was 0.054 and the “area with substrate ENSYFQS” value is 0.0693. The “area with substrate ENTYFQS” value was determined as 0.0608 and the “area with substrate ENVYFQS” value was determined as 0.0991.
